For 30 molecules, activity change, negative = inhibition results are on record in PubChem BioAssay AID1745853 (National Center for Advancing Translational Sciences (NCATS), 2022).

Each structure is given as a SMILES string. Values joined by “and” are separate entries in the source; they are usually repeats but may differ in a detail not shown here. Identical values can stand only once. This is one part of the list. The main result of the screen is listed elsewhere. These columns were measured beside it and carry no call.

Holding throughout (test): Primary Screen for Target Class Profiling of Small Molecule Inhibitors of Methyltransferases
Assay [1] concerns the target Glycine N-methyltransferase (Homo sapiens) (UniProt Q14749). To be noted: purified enzyme, MTase-Glo SAH luminescence; measured here: GNMT inhibition; at 40 µM; stronger effect = lower value. The procedure, abridged: (§1)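 Each enzyme was reacted with SAM and its substrate, with compounds tested once at 40 uM; SAH formed was read by MTase-Glo luminescence.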
Assay [2] deals with Guanidinoacetate N-methyltransferase (Homo sapiens) (UniProt Q14353). The settings on record: purified enzyme, MTase-Glo SAH luminescence; measured here: GAMT inhibition; at 40 µM; stronger effect = lower value. The procedure, abridged:
as §1

Assay [3] has as its target Histamine N-methyltransferase (Homo sapiens) (UniProt P50135). The settings on record: purified enzyme, MTase-Glo SAH luminescence; measured here: HNMT inhibition; at 40 µM; stronger effect = lower value. The essentials:
as §1

Assay [4] deals with Nicotinamide N-methyltransferase (Homo sapiens) (UniProt P40261). To be noted: purified enzyme, MTase-Glo SAH luminescence; measured here: NNMT inhibition; at 40 µM; stronger effect = lower value. The essentials:
as §1

For assay [5], the target named is Phenylethanolamine N-methyltransferase (Homo sapiens) (UniProt P11086). To be noted: purified enzyme, MTase-Glo SAH luminescence; measured here: PNMT inhibition; at 40 µM; stronger effect = lower value. The procedure, abridged: as §1
% is scaled to controls: 0 for no effect and ±100 for the full control effect.

For `c1ccc(CN2CCNc3cnc(Nc4ccc(N5CCOCC5)cc4)cc3C2)cc1`, the activity change, negative = inhibition in assay [1] is -44.1%; in assay [2], -42.3%; in assay [3], -45.5%; in assay [4] it was -42.1%; in assay [5], -58.1%.

Regarding `COC(=O)c1ccc(NC(=O)CN(C)S(=O)(=O)c2ccc3[nH]c4c(c3c2)CCCC4)cc1`, the activity change, negative = inhibition worked out at 3.1% in assay [1]; 4.56% in assay [2]; 0.078% in assay [3]; 4.41% in assay [4]; 2.66% in assay [5].

With `CCOc1cc2oc(=O)cc(-c3ccccc3)c2cc1Cl`, the activity change, negative = inhibition is -6.65% in assay [1]; 5.01% in assay [2]; -0.655% in assay [3]; -4.14% in assay [4]; -8.9% in assay [5].

On to `COCCOCC1(CNC(=O)c2cccnc2)C[C@@H](O)[C@@H](O)C1` (stereo partly drawn), for which the activity change, negative = inhibition is -2.51% in assay [1]; -3.78% in assay [2]; 0.624% in assay [3]; -9.23% in assay [4]; -11.7% in assay [5].

With `COc1ccc(-c2c(-c3cc(C(=O)O)ccn3)ncn2C)cc1`, the activity change, negative = inhibition is 4.16% in assay [1]; 8.2% in assay [2]; 7.19% in assay [3]; -5.51% in assay [4]; 4.75% in assay [5].

As to `C[C@@H]1CC[C@]2(C(=O)O)CC[C@]3(C)C(=CCC4[C@@]5(C)C[C@@H](O)[C@H](O)[C@@](C)(CO)C5CC[C@]43C)C2[C@]1(C)O` (stereo partly drawn), the activity change, negative = inhibition in assay [1] was -4.32%; in assay [2], -5.38%; in assay [3], 2.29%; in assay [4], -19.2%; in assay [5] it was -14.8%.

For the molecule `COC1=CC(=O)C=C(C)C12Oc1c(Cl)c(OC)cc(OC)c1C2=O` (stereo not drawn), the activity change, negative = inhibition in assay [1] was 4.98%; in assay [2] it was 4.37%; in assay [3], 7.48%; in assay [4] it was -10.3%; in assay [5], 2.2%.

In the case of `Cc1cccc(C(=O)N2CC[C@H]3C(=O)NCCCCCCN(Cc4ccncc4)[C@@H]3C2)c1`, the activity change, negative = inhibition in assay [1] is -9%; in assay [2], -9.3%; in assay [3], -7.75%; in assay [4], -10%; in assay [5] it was -7.36%.

With `CCCCNc1nc2c(-c3ccc(Cl)cc3)nnn2c2ccccc12`, the activity change, negative = inhibition in assay [1] is 3.62%; in assay [2] it was -0.436%; in assay [3], -2.75%; in assay [4], 2.02%; in assay [5], -4.18%.

On to `CC/C(C)=C/C(=O)OC1C(OC2(C)CCC3C(C4C(C)CCC42)C3(C)C)OC(C)C(O)C1O` (stereo not drawn), for which the activity change, negative = inhibition in assay [1] is 1.11%; in assay [2] it was 7.9%; in assay [3], 8.89%; in assay [4], -25.4%; in assay [5], 4.17%.

As for `O=c1[nH]cnc2c1ncn2[C@@H]1O[C@H](CO)[C@@H](O)[C@H]1O`, the activity change, negative = inhibition in assay [1] was 5.79%; in assay [2], 8.47%; in assay [3], 8.07%; in assay [4], -6.27%; in assay [5] it was 5.15%.

`CC1CCC(NC(=O)C2(C)Cn3c(cc4occc43)C(=O)N2Cc2ccccc2F)CC1` (stereo not drawn): the activity change, negative = inhibition in assay [1] was 3.45%; in assay [2] it was -0.744%; in assay [3], 5.86%; in assay [4], 0.841%; in assay [5], 3.27%.

Take `CC(C)Cn1c(=O)n(C)c(=O)c2[nH]cnc21`: the activity change, negative = inhibition was 8.87% in assay [1]; 6.76% in assay [2]; 12.8% in assay [3]; -11% in assay [4]; -6.57% in assay [5].

Consider `CCc1ccc(NS(=O)(=O)c2ccc3c(c2)n(C)c(=O)n3C)cc1`, for which the activity change, negative = inhibition in assay [1] is -5.63%; in assay [2], 4.8%; in assay [3], -4.06%; in assay [4], -36.3%; in assay [5], -6.23%.

In the case of `CC(=O)OCC1OC(O[C@H]2CC[C@@]3(C)C(CC[C@]4(C)C3CC=C3[C@@H]5CC(C)(C)CC[C@]5(C(=O)O)CC[C@]34C)[C@]2(C)CO)C(O)C(O)C1OC1OC(C)C(O)C(OC2OCC(O)C(O)C2O)C1O` (stereo partly drawn), the activity change, negative = inhibition is 3.75% in assay [1]; 0.961% in assay [2]; 5.56% in assay [3]; -11.6% in assay [4]; 5.03% in assay [5].

On to `COC(=O)CNC(=O)N1CCC2(CC1)CC(c1ccccc1)CN(C)C2` (stereo not drawn), for which the activity change, negative = inhibition in assay [1] was 0.401%; in assay [2] it was 1.74%; in assay [3], -1.53%; in assay [4] it was -2.31%; in assay [5], 11.3%.

As for `Cc1ccc(CNC(=O)CCc2nnc3n(CCc4ccccc4)c(=O)c4ccccc4n23)cc1`, the activity change, negative = inhibition in assay [1] was -1.81%; in assay [2], 0.447%; in assay [3], 9.61%; in assay [4], 14.2%; in assay [5], 3.83%.

For `CCCn1c(=O)c2ccc(C(=O)NC(C)CC)cc2n2c(=O)n(CC(=O)Nc3ccccc3C)nc12` (stereo not drawn), the activity change, negative = inhibition in assay [1] is -4.75%; in assay [2] it was 1%; in assay [3], 0.109%; in assay [4], -3.1%; in assay [5], -1.06%.

For the molecule `CN(Cc1cccnc1)C1CCCc2ccccc21` (stereo not drawn), the activity change, negative = inhibition in assay [1] is -9.34%; in assay [2], -1.9%; in assay [3], -10.1%; in assay [4], -9.44%; in assay [5], 0.303%.

In the case of `CCOC(=O)c1ccc2c(c1)[C@@H]1C=CC[C@@H]1[C@H](c1ccc(C(C)C)cc1)N2`, the activity change, negative = inhibition is -26.4% in assay [1]; -4.51% in assay [2]; -15.5% in assay [3]; -21.1% in assay [4]; -14.4% in assay [5].

With `CC(C)/C=C1\NC(=O)C(C(C)C)n2c1nc1ccccc1c2=O` (stereo not drawn), the activity change, negative = inhibition in assay [1] is 0%; in assay [2] it was -3.49%; in assay [3], -0.127%; in assay [4], -28.2%; in assay [5], 0.035%.

For the molecule `CCn1cc(S(=O)(=O)N2CCCC2Cc2noc(-c3ccccc3)n2)cn1` (stereo not drawn), the activity change, negative = inhibition in assay [1] is -6.91%; in assay [2] it was -9.85%; in assay [3], -4.59%; in assay [4], -15.6%; in assay [5], -11.4%.

With `CC1(C(=O)N2CCCC2)CCC(=O)N1CCc1ccccc1Cl` (stereo not drawn), the activity change, negative = inhibition in assay [1] turned out to be 1.55%; in assay [2], 0%; in assay [3] it was 4.3%; in assay [4], 5.24%; in assay [5], 1.16%.

For `Cc1ccn2c(C(=O)N3CCCC(c4[nH]ncc4-c4ccccc4)C3)nnc2n1` (stereo not drawn), the activity change, negative = inhibition in assay [1] was -5.43%; in assay [2], -6.16%; in assay [3], -1.67%; in assay [4], -9.16%; in assay [5], -5.85%.

Regarding `CCc1ccc(CN2C(=O)c3cc4ccccc4n3CC2(C)C(=O)NCCC(C)C)cc1` (stereo not drawn), the activity change, negative = inhibition in assay [1] is 2.55%; in assay [2] it was 0%; in assay [3] it was 2.83%; in assay [4], -0.228%; in assay [5] it was -1.41%.

Turning to `COC1CN(c2cccc(F)c2)C12CCN(S(=O)(=O)c1cccs1)CC2` (stereo not drawn), the activity change, negative = inhibition is -3.21% in assay [1]; -4.17% in assay [2]; 0.552% in assay [3]; -12.4% in assay [4]; -5.36% in assay [5].

For the molecule `CCCCOc1cc(CC2CNC(=O)N2)ccc1OC` (stereo not drawn), the activity change, negative = inhibition in assay [1] was 1.79%; in assay [2], 7.12%; in assay [3] it was 4.61%; in assay [4], -3.43%; in assay [5], 6.38%.

With `CCOc1ccc(/C=C2\SC(=O)N(CCN)C2=O)cc1`, the activity change, negative = inhibition in assay [2] was 11.7%; in assay [4], -6.56%; in assay [5] it was 3.09%.

As to `O=C1NC(=O)/C(=C/c2ccc3c(c2)OC(F)(F)O3)S1`, the activity change, negative = inhibition in assay [1] was -21.3% and -23.7%; in assay [2], 8.57% and -9.99%; in assay [3], 6.24% and 1.32%; in assay [4], -9.08% and -28.4%; in assay [5], 2.88% and -5.95%.

On to `CCc1ccc(CNC(=O)C(C)n2ccc3cc(S(=O)(=O)N4CCCC4)ccc32)cc1` (stereo not drawn), for which the activity change, negative = inhibition in assay [1] is -1.21%; in assay [2], -3.05%; in assay [3] it was -6.59%; in assay [4], -5.3%; in assay [5], -5.61%.
